According to publication PMC4336329 (PLoS ONE, 2015):
Among all 310,000 compounds or so, about 14,000 (4.5%) showed an effect of 50% or more. The effect is printed as a negative number. This is one part of the list.

These compounds were tested against human ether-à-go-go-related gene (hERG) potassium channel (human, UniProt Q12809) (assay: primary screen, population patch clamp on CHO cells stably expressing hERG).
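Further: peak tail current of the secondary pulse compared with the same well before compound.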

human ether-à-go-go-related gene (hERG) potassium channel, sequence (Q12809 whole entry, looked up): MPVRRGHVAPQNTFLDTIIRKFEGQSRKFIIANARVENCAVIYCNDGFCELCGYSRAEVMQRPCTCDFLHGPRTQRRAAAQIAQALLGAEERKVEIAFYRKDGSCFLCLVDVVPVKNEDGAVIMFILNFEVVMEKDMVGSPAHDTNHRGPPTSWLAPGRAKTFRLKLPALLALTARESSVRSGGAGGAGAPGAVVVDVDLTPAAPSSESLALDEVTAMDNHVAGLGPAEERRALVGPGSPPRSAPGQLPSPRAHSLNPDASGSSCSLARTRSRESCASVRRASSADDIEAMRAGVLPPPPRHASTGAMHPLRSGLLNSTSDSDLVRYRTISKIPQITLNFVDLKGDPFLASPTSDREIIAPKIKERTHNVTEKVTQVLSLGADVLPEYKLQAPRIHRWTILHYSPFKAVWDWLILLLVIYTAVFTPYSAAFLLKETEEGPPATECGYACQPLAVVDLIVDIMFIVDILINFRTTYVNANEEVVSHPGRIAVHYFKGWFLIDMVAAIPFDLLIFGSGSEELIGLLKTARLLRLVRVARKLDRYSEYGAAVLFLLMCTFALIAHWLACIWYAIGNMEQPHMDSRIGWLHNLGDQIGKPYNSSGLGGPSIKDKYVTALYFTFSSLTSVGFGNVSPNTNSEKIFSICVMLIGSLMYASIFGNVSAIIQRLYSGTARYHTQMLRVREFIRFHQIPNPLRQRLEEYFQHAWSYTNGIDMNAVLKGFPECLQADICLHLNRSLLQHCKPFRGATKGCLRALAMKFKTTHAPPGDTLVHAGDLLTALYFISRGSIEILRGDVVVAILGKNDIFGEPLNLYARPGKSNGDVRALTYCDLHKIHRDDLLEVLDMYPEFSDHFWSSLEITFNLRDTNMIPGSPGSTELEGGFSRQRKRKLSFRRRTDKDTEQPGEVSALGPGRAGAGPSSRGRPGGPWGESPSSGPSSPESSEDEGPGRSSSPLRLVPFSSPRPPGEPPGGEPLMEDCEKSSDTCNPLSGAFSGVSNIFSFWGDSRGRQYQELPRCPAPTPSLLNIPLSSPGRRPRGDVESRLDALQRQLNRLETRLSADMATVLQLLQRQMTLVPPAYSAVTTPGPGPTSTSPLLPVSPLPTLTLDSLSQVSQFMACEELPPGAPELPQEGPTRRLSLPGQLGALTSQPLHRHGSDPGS

SMILES	hERG current change (%, negative = inhibition) at 10uM
COc1ccc(/C(N)=N/OC(=O)Oc2ccccc2)cc1OC	16.4%
CC1CCC(NC(=O)c2cc(Cl)nc3ccccc23)CC1 (stereo not drawn)	10.9%
CC(C)c1ccc(CN2CC(C(=O)O)CC2=O)cc1 (stereo not drawn)	15.7%
COc1cccc(-c2cccc(NC(=O)C3CCN(Cc4cccc(C)n4)CC3)c2)c1	-80.1%
COc1ccccc1C(=O)N1CCC(N2CCN(c3ccccc3)CC2)CC1	-8.58%
O=C(Nc1ccnn1C1CCN(Cc2ccccc2)CC1)C1CCCC1	-36.7%
CCOC(=O)C1CCN(Cc2cccc(Oc3ccccc3)c2)CC1	-21%
COc1ccccc1N(C)S(=O)(=O)c1ccc(C(=O)N2CCCC(C(F)(F)F)C2)cc1 (stereo not drawn)	-4.52%
Cc1ccc(N2C(=O)NC(=O)C(CCc3ccccn3)(Cc3cccc(Cl)c3Cl)C2=O)cc1 (stereo not drawn)	-18.6%
Fc1ccc(CN2CCN(C(=S)NCCc3ccccc3)CC2)c(Cl)c1	29.2%
COc1ccc(/C=N\NC(=O)c2ccccc2OC)cc1COc1ccccc1C	13.8%
CNC(=O)C1(C)C=CC2(CCCCC2)N1C(=O)OC (stereo not drawn)	11%
CC(C)c1ccc(S(=O)(=O)N2CCN(C(=O)n3ccnc3)CC2)cc1	-35.8%
COc1ccccc1-n1cnc2cc(C(=O)NCCCN3CCOCC3)ccc21	-0.264%
COc1cc(/C=N/N=C(N)N)ccc1OCc1ccc(Cl)cc1	-50.5%
COc1ccc(-n2c(=O)c3c4c(sc3n(CC(=O)NCC3CCCO3)c2=O)CCCC4)c(OC)c1 (stereo not drawn)	8.31%
O=S(=O)(c1ccc2ccccc2c1)N1C=CC(C(F)(F)F)=NCC1	-11.6%
COc1ccc(N2CCN(C(=O)CCSCc3ccccc3F)CC2)cc1	-28.1%
CN1C(=O)/C(=C/c2ccccc2OCc2ccc(C(=O)O)cc2)NC1=S	9.44%
CCOc1ccc(S(=O)(=O)N(C)c2ccc(OCC(=O)N3c4ccc(C)cc4C4CN(C)CCC43)cc2)cc1 (stereo not drawn)	-38.5%
O=C1c2ccccc2NC(c2cccs2)N1NS(=O)(=O)c1ccccc1 (stereo not drawn)	2.27%
O=C(O)c1ccc(COc2ccc3ccccc3c2)o1	3.19%
COc1ccc(NC(=O)NCc2ccc3c(c2)OCO3)cc1	7.72%
CCOc1ncccc1C(=O)Nc1ccc2c(C)cc(=O)oc2c1	18.8%
